A collection of fitness landscapes (doi:10.1126/science.1257360)
The list shows a part of the results.

B1: PhoQ; a variant is named by its letters at X, in order, P23837 (parent)
chain: MKKLLRLFFPLSLRVRFLLATAAVVLVLSLAYGMVALIGYSVSFDKTTFRLLRGESNLFYTLAKWENNKLHVELPENIDKQSPTMTLIYDENGQLLWAQRDVPWLMKMIQPDWLKSNGFHEIEADVNDTSLLLSGDHSIQQQLQEVREDDDDAEMTHSVAVNVYPATSRMPKLTIVVVDTIPVELKSSYMVWSWFIYVLSANLLLVIPLLWVAAWWSLRPIEALAKEVRELEEHNRELLNPATTRELTSLVRNLNRLLKSERERYDKYRTTLTDLTHSLKTPLXXLQXXLRSLRSEKMSVSDAEPVMLEQISRISQQIGYYLHRASMRGGTLLSRELHPVAPLLDNLTSALNKVYQRKGVNISLDISPEISFVGEQNDFVEVMGNVLDNACKYCLEFVEISARQTDEHLYIVVEDDGPGIPLSKREVIFDRGQRVDTLRPGQGVGLAVAREITEQYEGKIVAGESMLGGARMEVIFGRQHSAPKDE

Variants of: B1
Test: enrichment ratio after two sorts for PhoP signalling (ratio (wild type AVST 3.29)); higher = more functional
Conditions: with PhoP (E. coli)
Work on ETIY yielded an enrichment ratio of no more than 0.25. Work on GDGN yielded an enrichment ratio of no more than 0.25. MPQR was tested, and the enrichment ratio was no more than 0.25. With NQQM the enrichment ratio was no more than 0.25. AQSQ showed an enrichment ratio of 1.5. CALN was tested, and the enrichment ratio was 65. Variant FIYM has an enrichment ratio of no more than 0.25. With YDHW the enrichment ratio was no more than 0.25. TLGN gave an enrichment ratio of 7.31. For GPNM, the enrichment ratio was no more than 0.25. In the case of PTYF, the enrichment ratio is reported as no more than 0.25. NYGK gave an enrichment ratio of no more than 0.25. YQGI gave an enrichment ratio of no more than 0.25. Variant SQTA has an enrichment ratio of 0.808. QCST showed an enrichment ratio of 2.83. For SKKA, the enrichment ratio was no more than 0.25. In the case of VDTE, the enrichment ratio is reported as no more than 0.25. HYQS showed an enrichment ratio of no more than 0.25. KPAD showed an enrichment ratio of no more than 0.25. For IDHM, the enrichment ratio was no more than 0.25. In the case of DACD, the enrichment ratio is reported as no more than 0.25. With VYIW the enrichment ratio was no more than 0.25. In the case of KPHC, the enrichment ratio is reported as no more than 0.25. In the case of HSVC, the enrichment ratio is reported as no more than 0.25. With KACP the enrichment ratio was no more than 0.25. In the case of FEQL, the enrichment ratio is reported as no more than 0.25. Variant YQDR has an enrichment ratio of no more than 0.25. ENAS gave an enrichment ratio of no more than 0.25. EGRG was tested, and the enrichment ratio was no more than 0.25. With PEEV the enrichment ratio was no more than 0.25. IHWE showed an enrichment ratio of no more than 0.25. With SPYF the enrichment ratio was no more than 0.25. PKWK gave an enrichment ratio of no more than 0.25. In the case of QRWI, the enrichment ratio is reported as no more than 0.25. Work on WYYT yielded an enrichment ratio of no more than 0.25. Variant LHWD has an enrichment ratio of no more than 0.25. Work on YTNF yielded an enrichment ratio of no more than 0.25. KCLQ was tested, and the enrichment ratio was no more than 0.25. HGDQ gave an enrichment ratio of no more than 0.25. With TICM the enrichment ratio was 0.46. SSFQ showed an enrichment ratio of 3.15. Variant PLEY has an enrichment ratio of no more than 0.25. In the case of QMNY, the enrichment ratio is reported as no more than 0.25. TRMG showed an enrichment ratio of no more than 0.25. For SVRR, the enrichment ratio was no more than 0.25. In the case of GAFD, the enrichment ratio is reported as no more than 0.25. Variant PVCH has an enrichment ratio of no more than 0.25. VNTC gave an enrichment ratio of no more than 0.25. Work on VIDK yielded an enrichment ratio of no more than 0.25. Work on MPPQ yielded an enrichment ratio of no more than 0.25. QVFK gave an enrichment ratio of no more than 0.25. QSPW gave an enrichment ratio of no more than 0.25. Work on PFPF yielded an enrichment ratio of no more than 0.25. AVHR gave an enrichment ratio of no more than 0.25. Variant PILG has an enrichment ratio of no more than 0.25. For MQLI, the enrichment ratio was 9.47. ENHF showed an enrichment ratio of no more than 0.25. In the case of IRHD, the enrichment ratio is reported as no more than 0.25. KNCV gave an enrichment ratio of no more than 0.25. IYIY gave an enrichment ratio of no more than 0.25. For MHSK, the enrichment ratio was no more than 0.25. Work on HYFM yielded an enrichment ratio of no more than 0.25. Variant FIAK has an enrichment ratio of no more than 0.25. For ESYY, the enrichment ratio was no more than 0.25. Variant FGND has an enrichment ratio of no more than 0.25. PFME was tested, and the enrichment ratio was no more than 0.25. Work on GSYK yielded an enrichment ratio of no more than 0.25. For YIKP, the enrichment ratio was no more than 0.25. Variant GWAA has an enrichment ratio of no more than 0.25. RPCM showed an enrichment ratio of no more than 0.25. QFTN was tested, and the enrichment ratio was no more than 0.25. With DLKH the enrichment ratio was no more than 0.25. In the case of KRLN, the enrichment ratio is reported as no more than 0.25. With KRVI the enrichment ratio was no more than 0.25. ATMN was tested, and the enrichment ratio was no more than 0.25. For LCKC, the enrichment ratio was no more than 0.25. For QLGC, the enrichment ratio was no more than 0.25.
